# Measured values taken from publication PMC2970546.
# Results are given in words; binding and its absence hold for the method and conditions named. For some of these results: In cells and extracts the contact can be indirect. Some binding calls cover weakened binding; strength is not graded here. For some of these results: Where a sequence is shown, tags or fusion partners need not be part of it.
# T1: human septin 10 (human) (UniProt Q9P0V9)
# T1 sequence: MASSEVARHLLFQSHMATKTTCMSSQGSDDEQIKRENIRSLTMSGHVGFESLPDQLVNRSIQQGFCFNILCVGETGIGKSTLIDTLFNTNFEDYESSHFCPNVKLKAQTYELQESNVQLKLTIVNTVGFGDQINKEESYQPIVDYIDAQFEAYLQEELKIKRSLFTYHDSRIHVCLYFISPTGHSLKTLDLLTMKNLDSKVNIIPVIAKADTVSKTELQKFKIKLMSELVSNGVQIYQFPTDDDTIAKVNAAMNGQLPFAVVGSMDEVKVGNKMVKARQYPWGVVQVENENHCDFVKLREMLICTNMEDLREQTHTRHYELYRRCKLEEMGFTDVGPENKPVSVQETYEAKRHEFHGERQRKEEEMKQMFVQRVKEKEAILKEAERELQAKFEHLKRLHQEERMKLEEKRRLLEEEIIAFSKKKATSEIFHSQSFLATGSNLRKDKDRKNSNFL
# T2: human septin 5 (human) (UniProt Q99719)
# T2 sequence: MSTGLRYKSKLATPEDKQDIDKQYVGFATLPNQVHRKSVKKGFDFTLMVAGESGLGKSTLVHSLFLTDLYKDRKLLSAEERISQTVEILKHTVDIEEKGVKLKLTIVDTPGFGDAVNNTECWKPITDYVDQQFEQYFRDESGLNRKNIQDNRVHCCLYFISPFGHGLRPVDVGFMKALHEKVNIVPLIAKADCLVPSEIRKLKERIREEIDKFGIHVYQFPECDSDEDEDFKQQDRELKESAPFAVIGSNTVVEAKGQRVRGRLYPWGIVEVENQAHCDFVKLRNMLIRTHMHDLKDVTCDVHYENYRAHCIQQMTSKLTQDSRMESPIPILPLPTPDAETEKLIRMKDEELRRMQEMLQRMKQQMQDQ
# T3: human septin 8 (human) (UniProt Q92599)
# T3 sequence: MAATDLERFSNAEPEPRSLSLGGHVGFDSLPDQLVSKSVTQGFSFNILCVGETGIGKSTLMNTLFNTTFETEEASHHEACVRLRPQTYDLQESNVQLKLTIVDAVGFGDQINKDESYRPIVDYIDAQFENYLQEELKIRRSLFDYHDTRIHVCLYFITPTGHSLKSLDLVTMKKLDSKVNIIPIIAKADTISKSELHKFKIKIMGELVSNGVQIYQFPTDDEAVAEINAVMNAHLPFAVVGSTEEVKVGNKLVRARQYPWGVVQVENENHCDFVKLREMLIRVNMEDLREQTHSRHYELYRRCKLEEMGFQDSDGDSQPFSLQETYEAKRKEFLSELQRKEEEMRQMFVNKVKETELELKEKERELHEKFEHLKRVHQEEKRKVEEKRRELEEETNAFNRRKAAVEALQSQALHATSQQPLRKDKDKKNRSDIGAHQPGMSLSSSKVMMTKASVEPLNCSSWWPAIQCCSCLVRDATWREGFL
# T4: GST-SEPT6 (human) (UniProt Q14141)
# T4 sequence: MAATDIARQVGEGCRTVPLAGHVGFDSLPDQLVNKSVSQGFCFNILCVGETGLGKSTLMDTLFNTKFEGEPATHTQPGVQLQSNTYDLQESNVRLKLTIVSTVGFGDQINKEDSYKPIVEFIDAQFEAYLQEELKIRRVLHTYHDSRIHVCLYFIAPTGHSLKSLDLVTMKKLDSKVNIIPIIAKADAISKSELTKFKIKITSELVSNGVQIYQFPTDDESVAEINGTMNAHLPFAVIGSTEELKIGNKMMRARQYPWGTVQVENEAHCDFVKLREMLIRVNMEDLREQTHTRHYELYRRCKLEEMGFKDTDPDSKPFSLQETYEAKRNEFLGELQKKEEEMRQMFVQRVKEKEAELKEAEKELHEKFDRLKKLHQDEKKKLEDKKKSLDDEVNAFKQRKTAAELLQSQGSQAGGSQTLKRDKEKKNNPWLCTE
# T5: human septin 1 (human) (UniProt Q8WYJ6)
# T5 sequence: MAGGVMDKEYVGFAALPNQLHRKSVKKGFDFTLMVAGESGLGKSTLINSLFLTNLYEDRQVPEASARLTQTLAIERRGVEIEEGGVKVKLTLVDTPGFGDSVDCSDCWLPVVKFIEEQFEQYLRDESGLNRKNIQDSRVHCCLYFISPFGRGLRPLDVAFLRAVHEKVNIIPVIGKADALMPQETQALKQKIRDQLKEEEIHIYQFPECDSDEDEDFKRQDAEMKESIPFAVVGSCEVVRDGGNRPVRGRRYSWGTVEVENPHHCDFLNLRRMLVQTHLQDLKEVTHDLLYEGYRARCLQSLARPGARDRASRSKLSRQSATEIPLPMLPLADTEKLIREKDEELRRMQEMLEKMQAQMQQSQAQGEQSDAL
# Experiments:
# human septin 10 (human) = target: T1, human septin 10 (human); assay: two-hybrid; LexA-septin bait (modified pBTM116) in yeast L40 screened against human fetal brain and human leukocyte cDNA libraries (pACT2); minimal medium without Trp, Leu, His, with 5 mM 3-AT; every clone confirmed one-to-one with its bait by beta-galactosidase filter assay, empty bait vector as control
# human septin 5 (human) = target: T2, human septin 5 (human); assay: as above
# human septin 8 (human) = target: T3, human septin 8 (human); assay: as above
# GST-SEPT6 (human) = target: T4, GST-SEPT6 (human); assay: pull-down; co-purification of GST-SEPT6 with a second septin, both expressed together in E. coli; unpublished observations (Nakahira et al.)
# human septin 1 (human) = target: T5, human septin 1 (human); assay: two-hybrid; LexA-septin bait (modified pBTM116) in yeast L40 screened against human fetal brain and human leukocyte cDNA libraries (pACT2); minimal medium without Trp, Leu, His, with 5 mM 3-AT; every clone confirmed one-to-one with its bait by beta-galactosidase filter assay, empty bait vector as control
Binder,binding (human septin 10 (human)),binding (human septin 5 (human)),binding (human septin 8 (human)),binding (GST-SEPT6 (human)),binding (human septin 1 (human))
"human septin 8 (protein, UniProt Q92599-1 1-483) MAATDLERFSNAEPEPRSLSLGGHVGFDSLPDQLVSKSVTQGFSFNILCVGETGIGKSTLMNTLFNTTFETEEASHHEACVRLRPQTYDLQESNVQLKLTIVDAVGFGDQINKDESYRPIVDYIDAQFENYLQEELKIRRSLFDYHDTRIHVCLYFITPTGHSLKSLDLVTMKKLDSKVNIIPIIAKADTISKSELHKFKIKIMGELVSNGVQIYQFPTDDEAVAEINAVMNAHLPFAVVGSTEEVKVGNKLVRARQYPWGVVQVENENHCDFVKLREMLIRVNMEDLREQTHSRHYELYRRCKLEEMGFQDSDGDSQPFSLQETYEAKRKEFLSELQRKEEEMRQMFVNKVKETELELKEKERELHEKFEHLKRVHQEEKRKVEEKRRELEEETNAFNRRKAAVEALQSQALHATSQQPLRKDKDKKNRSDIGAHQPGMSLSSSKVMMTKASVEPLNCSSWWPAIQCCSCLVRDATWREGFL",no binding,binds,no binding,–,–
"human septin 10 (protein, UniProt Q9P0V9 1-454) MASSEVARHLLFQSHMATKTTCMSSQGSDDEQIKRENIRSLTMSGHVGFESLPDQLVNRSIQQGFCFNILCVGETGIGKSTLIDTLFNTNFEDYESSHFCPNVKLKAQTYELQESNVQLKLTIVNTVGFGDQINKEESYQPIVDYIDAQFEAYLQEELKIKRSLFTYHDSRIHVCLYFISPTGHSLKTLDLLTMKNLDSKVNIIPVIAKADTVSKTELQKFKIKLMSELVSNGVQIYQFPTDDDTIAKVNAAMNGQLPFAVVGSMDEVKVGNKMVKARQYPWGVVQVENENHCDFVKLREMLICTNMEDLREQTHTRHYELYRRCKLEEMGFTDVGPENKPVSVQETYEAKRHEFHGERQRKEEEMKQMFVQRVKEKEAILKEAERELQAKFEHLKRLHQEERMKLEEKRRLLEEEIIAFSKKKATSEIFHSQSFLATGSNLRKDKDRKNSNFL",no binding,–,no binding,–,–
"human septin 5 (protein, UniProt Q99719-1 1-369) MSTGLRYKSKLATPEDKQDIDKQYVGFATLPNQVHRKSVKKGFDFTLMVAGESGLGKSTLVHSLFLTDLYKDRKLLSAEERISQTVEILKHTVDIEEKGVKLKLTIVDTPGFGDAVNNTECWKPITDYVDQQFEQYFRDESGLNRKNIQDNRVHCCLYFISPFGHGLRPVDVGFMKALHEKVNIVPLIAKADCLVPSEIRKLKERIREEIDKFGIHVYQFPECDSDEDEDFKQQDRELKESAPFAVIGSNTVVEAKGQRVRGRLYPWGIVEVENQAHCDFVKLRNMLIRTHMHDLKDVTCDVHYENYRAHCIQQMTSKLTQDSRMESPIPILPLPTPDAETEKLIRMKDEELRRMQEMLQRMKQQMQDQ",no binding,binds,binds,–,binds

# The remaining lines, values ahead:
binding (human septin 10 (human)),binding (human septin 5 (human)),binding (human septin 8 (human)),binding (GST-SEPT6 (human)),binding (human septin 1 (human)),Binder
–,–,–,binds,–,"septin 7 co-expressed with GST-SEPT6 in E. coli (protein, UniProt Q16181 1-437) MSVSARSAAAEERSVNSSTMVAQQKNLEGYVGFANLPNQVYRKSVKRGFEFTLMVVGESGLGKSTLINSLFLTDLYSPEYPGPSHRIKKTVQVEQSKVLIKEGGVQLLLTIVDTPGFGDAVDNSNCWQPVIDYIDSKFEDYLNAESRVNRRQMPDNRVQCCLYFIAPSGHGLKPLDIEFMKRLHEKVNIIPLIAKADTLTPEECQQFKKQIMKEIQEHKIKIYEFPETDDEEENKLVKKIKDRLPLAVVGSNTIIEVNGKRVRGRQYPWGVAEVENGEHCDFTILRNMLIRTHMQDLKDVTNNVHYENYRSRKLAAVTYNGVDNNKNKGQLTKSPLAQMEEERREHVAKMKKMEMEMEQVFEMKVKEKVQKLKDSEAELQRRHEQMKKNLEAQHKELEEKRRQFEDEKANWEAQQRILEQQNSSRTLEKNKKKGKIF"
–,–,–,binds,–,"septin 1 co-expressed with GST-SEPT6 in E. coli (protein, UniProt Q8WYJ6 1-372) MAGGVMDKEYVGFAALPNQLHRKSVKKGFDFTLMVAGESGLGKSTLINSLFLTNLYEDRQVPEASARLTQTLAIERRGVEIEEGGVKVKLTLVDTPGFGDSVDCSDCWLPVVKFIEEQFEQYLRDESGLNRKNIQDSRVHCCLYFISPFGRGLRPLDVAFLRAVHEKVNIIPVIGKADALMPQETQALKQKIRDQLKEEEIHIYQFPECDSDEDEDFKRQDAEMKESIPFAVVGSCEVVRDGGNRPVRGRRYSWGTVEVENPHHCDFLNLRRMLVQTHLQDLKEVTHDLLYEGYRARCLQSLARPGARDRASRSKLSRQSATEIPLPMLPLADTEKLIREKDEELRRMQEMLEKMQAQMQQSQAQGEQSDAL"
–,–,–,binds,–,"septin 2 co-expressed with GST-SEPT6 in E. coli (protein, UniProt Q15019 1-361) MSKQQPTQFINPETPGYVGFANLPNQVHRKSVKKGFEFTLMVVGESGLGKSTLINSLFLTDLYPERVIPGAAEKIERTVQIEASTVEIEERGVKLRLTVVDTPGYGDAINCRDCFKTIISYIDEQFERYLHDESGLNRRHIIDNRVHCCFYFISPFGHGLKPLDVAFMKAIHNKVNIVPVIAKADTLTLKERERLKKRILDEIEEHNIKIYHLPDAESDEDEDFKEQTRLLKASIPFSVVGSNQLIEAKGKKVRGRLYPWGVVEVENPEHNDFLKLRTMLITHMQDLQEVTQDLHYENFRSERLKRGGRKVENEDMNKDQILLEKEAELRRMQEMIARMQAQMQMQMQGGDGDGGALGHHV"
–,–,–,binds,–,"septin 5 co-expressed with GST-SEPT6 in E. coli (protein, UniProt Q99719 1-369) MSTGLRYKSKLATPEDKQDIDKQYVGFATLPNQVHRKSVKKGFDFTLMVAGESGLGKSTLVHSLFLTDLYKDRKLLSAEERISQTVEILKHTVDIEEKGVKLKLTIVDTPGFGDAVNNTECWKPITDYVDQQFEQYFRDESGLNRKNIQDNRVHCCLYFISPFGHGLRPVDVGFMKALHEKVNIVPLIAKADCLVPSEIRKLKERIREEIDKFGIHVYQFPECDSDEDEDFKQQDRELKESAPFAVIGSNTVVEAKGQRVRGRLYPWGIVEVENQAHCDFVKLRNMLIRTHMHDLKDVTCDVHYENYRAHCIQQMTSKLTQDSRMESPIPILPLPTPDAETEKLIRMKDEELRRMQEMLQRMKQQMQDQ"
